Results: the supplement of paper PMC10126150
Values marked as one replicate rest on one cluster of the flow cell; about a third of the high ones do not repeat.

System: ATP
Assay: switch fluorescence ratio, 500 uM ATP over buffer (Cy3 cluster intensity, sum of 5 cycles each) (fold (ratio)); higher = stronger signal-on switching upon ATP binding; sequences stand for … in TCGTCGGCAGCGTCAGATGTGTATAAGAGACAGTTTTTTTTTTTTTTTTTTTTTTTTT…TC
Conditions: aptamer strand: ATP DNA aptamer (quencher-CACCTGGGGGAGTATTGCGGAGGAAGG + anchor), 100 nM annealed; ATP concentration: 500 uM; one replicate
Outline: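 For every switch-domain sequence, the fluorescence ratio is the mean of per-cluster values, each being summed target-cycle Cy3 intensity over summed buffer-cycle Cy3 intensity. Clusters outside 100-1000 RFU were excluded. On a modified Illumina MiSeq flow-cell, the Cy3-labelled switching-strand clusters were annealed to 100 nM quencher-labelled ATP aptamer, imaged in selection buffer and then after 15 min with 500 uM ATP at 22 °C. Five such cycles were run, with NaOH stripping and re-annealing between them.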
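Also: ATP exposure 15 min at 22 °C before imaging.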

Sequence | switch fluorescence ratio
CCAACTCAGA | 1.06
GGGTGGTCTT | 1
CTGTCAGGGC | 1.12
GATAGCCGAA | 1.01
AAGGAGCAGC | 0.783
TGGCTGGTG | 1.1
GTTAGCTCTA | 0.972
AGCAATGCGC | 1.97
CCGGGGCCAG | 0.957
TGCGGTACAC | 1.01
AGGCACAGCG | 0.992
CCCCATCTGG | 1.09
TACTCAAAGT | 1.02
TCTGACCTAA | 1.13
CAGAGTAATC | 1.16
AATTTTCTCT | 0.979
GTGACGATAT | 1.07
AGAGCTGCGT | 1.03
AGGGCATGTG | 1.01
TGTTGGATTC | 1.04
TCTGGTAGAA | 1
CGAGCTCCGT | 1.14
TATGCCCGAA | 1.01

Sequence | switch fluorescence ratio
TCAAAGGGTT | 1.04
TTATCAGGCC | 0.965
CATGACATAC | 1.46
TAAGGATAGT | 1.02
ATCTAGTCTA | 1.01
ACCGTTACTG | 1.22
GGATTATATG | 0.978
AACCTTATAT | 1
AGGACATGAC | 1.04
AGTAAGGTAG | 1.01
AAACAGGTAC | 1.11
GGGAATGCGT | 1.02
ACTCGTTTTA | 0.974
GTTAGGCACT | 1
ATGGAATGTT | 1.01
ACATACGCGT | 1.23
AAGCATGCGT | 0.94
CTCATGCGCT | 1.1
ATGTCGGTGG | 1.03
GTGATAATAG | 1.03
GGTGCGCGTT | 1
ATGTTTGCGG | 1.02
TAATAGATAA | 1.02

Sequence | switch fluorescence ratio
GGGGCGCGAG | 0.996
CACATTTCAG | 0.949
CTGACGGGCG | 0.88
ATCGTGCCGG | 1.08
AAATGAAAAT | 1.01
TATTAGATA | 0.98
ACAGGGCCGC | 1.05
ATACGAAATG | 1.08
CTTATGATTA | 0.947
TTCCAGTGAG | 1.02
GAGAGTTCGG | 0.99
TTATCCTCTT | 1.01
AAGGCCAGCA | 0.995
TCCCGGGGTT | 1.05
CATAGATGCT | 1
GCCCCACTGG | 1.51
TGAGTGAACA | 1.01
AAGTTTCGAT | 1.03
CGGGAGCTAT | 1.39
CTGATGTTTC | 1.03
GGGGCGCCGT | 1.08
CATGTGTTT | 0.962
GTTCGGACCT | 1.25

Sequence | switch fluorescence ratio
CAATGAGTCC | 1.04
TTTAACGA | 1.01
GCCACTGATA | 1.04
ACGTTATACA | 1.29
GCAATTATTA | 1.06
ACAAGAAACC | 1.08
AAGGTGGAGG | 0.991
CTGGGTGATG | 0.985
TGGCACGGCA | 1
GAATTGAATA | 1.04
ATCGCTTATA | 1.07
GTGTTAGGCC | 1.02
ACGACTGTTT | 1.29
TGGTTGTAAT | 0.983
CGTGTACGC | 1.01
TCTGGTGGC | 0.966
TTAATGCTGA | 1.07
TTTGTTGGCG | 1.06
ACCAATATGC | 1.54
TGGGGCGGCT | 1.03
GAGCGGAGAA | 1.02
AGGTGCACCT | 1
TCTCATCGAT | 1.01

Sequence | switch fluorescence ratio
CGTGGCGAA | 0.957
CTTGGTAGCC | 1
ATGTTGCACT | 1.01
TCGATGAGCC | 0.971
TATCGTAACC | 0.972
TGTGTGCAGC | 1.01
AGGCAAAATG | 0.963
ACGCGGGTTC | 0.968
GATATCCGTC | 0.998
CAGACCTTTT | 1.02
GCAAGTCGCG | 0.992
GGAATTGAGG | 0.941
TTCGCCTAGG | 1.13
TAGTTGATTT | 0.93
CGTAGTCCTC | 1.03
TGGTTTCACA | 1.04
AGATGCAGCG | 0.851
GTGGCCCTTG | 0.953
ACTTCTGACG | 1.95
AGTTGGGAGA | 1.04
TCTTGGTTT | 1.04
TCTAGCCTTG | 1.01
TGCTGTATTT | 0.969

Sequence | switch fluorescence ratio
GGTCGGTGGG | 0.948
TCAGGTTATT | 0.995
CGGTGCGACA | 1.01
CCATCATAAG | 1.01
GTACACCAGT | 1.02
GCAGGCCACG | 1.02
TTTCAGAGAT | 0.957
GAGTTTAAC | 1.13
CTGATGCGTA | 1.07
CTTTGCAGGA | 1.02
CCTCAAGTCA | 1.49
TAAAGACGAC | 1.56
GGGGAACAGC | 0.975
AAAATAAGGG | 1.06
TTGATAACTG | 1.06
CGGGTTTGGC | 0.958
CTAGTTGGGT | 1.03
CAGTTTCTTA | 1.08
TACTGGTGCC | 1.07
GGGGTCACAT | 1.01
TCGATAAGT | 1.02
CCTTAAAGAG | 1.17
TTTGAGGCAG | 1.03

Sequence | switch fluorescence ratio
CATTCAGGGC | 1.01
AGTACCTAGA | 0.995
CATCATCAAT | 1.55
ACCGTGCAAC | 1.1
TCAACTTGTG | 1.02
CGGTTTGTGG | 1
TCTTTTTTGT | 0.998
GTCCCCGATG | 1.08
ACCTTGACTC | 1.2
AACCGCACT | 1.81
AGATCTACAC | 1.07
GGAGTCGAG | 0.996
GCAGGCCCGG | 1.01
CCCTGTGTTT | 1.04
CATGAGTGCA | 1.04
TGACAGCGCG | 1
GGCACTCCTG | 1
GGTGACTGTG | 0.892
GGGGTCTGTG | 0.945
